Measurements reported in PubChem BioAssay (NCI).
“And” between values parts separate entries of the source, which are not always exact repeats. Equal values may be shown once.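 Tested at 5 concentrations; 48 h exposure; 96-well plates; endpoints linearly interpolated, else capped at highest concentration. GI50 is the concentration that inhibits growth by half. TGI is the concentration that stops growth completely.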 Numbered stars: 1 amine (or outer) side, 2 acyl side, 3 side chain; on linkers, the order of the positions; unused ones are H or OH. Bridge positions count the residues as written; N and C are the ends. Square brackets hold non-standard residues; d marks the D form. Peptide text beside a SMILES is read from it. I, II: the chains in the order shown. Actinocin(1to9) = Cc1c2oc3c(C)ccc(C(=O)[*:2])c3nc-2c(C(=O)[*:1])c(N)c1=O; NMeY = CN[CH](Cc1ccc(O)cc1)C(=O)O; Sar = CNCC(=O)O

system: NCI-H322M lung; experiment: growth of human tumour cells (NCI), 48 h

Point of comparison: CC[PH+](CC)CC.[Cl][Au], GI50 15400 nM. Against it:
- CCn1c2ccccc2c2cc(C(=O)c3ccc(C)c4ccccc34)ccc21 — 29-fold lower, 529 nM
- COc1cc(CNc2oc(-c3ccccc3)c(-c3ccccc3)c2C#N)cc(CN2CCN(C)CC2)c1O — 8.8-fold lower, 1750 nM
- CNC(=O)c1cncc(/C=C/c2ccccc2Cl)c1 — higher, > 25000 nM
- Cc1cc(O)c(-c2ccc([C@@H](C)CN(C)C)cc2)c2c1[nH]c(=O)c1sccc12 — 13-fold lower, 1180 nM
- N#CC1=C(N)NC(=O)NC12Nc1ccccc1N2 — higher, > 100000 nM
- O=C1N=C(Nc2nc(-c3csc(NC4=NC(=O)/C(=C\c5ccccc5)S4)n3)cs2)S/C1=C/c1ccccc1 — 2.2-fold lower, 6970 nM
- CC(C)(C)OC(=O)N[C@@H](Cc1ccccc1)C(=O)N(Cc1ccccc1)C1(C(=O)NCc2ccccc2)CCN(Cc2ccccc2)CC1 — 1.6-fold lower, 9370 nM
- COc1c(N2CCN(CN3C(=O)C(=Nc4ccc(S(=O)(=O)Nc5ncccn5)cc4)c4cc(Cl)ccc43)C(C)C2)c(F)cc2c(=O)c(C(=O)O)cn(C3CC3)c12 (stereo not given) — within 1.5-fold, 13900 nM
- CN(C)CCCNc1nc2ccccc2c2[nH]c3ccccc3c12 — 17-fold lower, 890 nM
- COc1ccc2[nH]c(C(=O)OCc3ccc4c(Cl)cc(Cl)c(O)c4n3)cc2c1 — 8.7-fold lower, 1780 nM
- CCN(CC)CCCCNc1c2ccc(Cl)cc2nc2ccc(OC)cc12 — 27-fold lower, 575 nM
- COc1cc(NCCCCCN=C(N)NC(N)=NC(C)C)c2ncccc2c1 — 5.9-fold lower, 2590 nM
- CCOC(=O)C1=C(C)NC(c2ccco2)=C(C#N)C1c1cccc([N+](=O)[O-])c1 (stereo not given) — 540-fold lower, 28.7 nM
- CN1CCN(CCCOc2cc(O)c3c(=O)cc(-c4ccccc4)oc3c2)CC1 — 1.8-fold higher, 27300 nM
- CC/C(=C/c1ccc(OC)cc1OC)[N+](=O)[O-] — within 1.5-fold, 13400 nM
- CO/N=C(\COc1ccc2oc(-c3ccccc3)cc(=O)c2c1)c1ccc(F)cc1 — 1.7-fold higher, 26100 nM
- COc1ccc2nc3cc(Cl)ccc3c(Nc3cc(CN4CCCC4)c(O)c(CN4CCCC4)c3)c2n1 — 7.2-fold lower, 2130 nM
- CC[C@H](C)[C@H](NC(=O)c1cccn1C)C(=O)N(C)[C@H](C[C@@H](OC(C)=O)c1nc(C(=O)N[C@@H](Cc2ccccc2)C[C@H](C)C(=O)OC)cs1)C(C)C — 63-fold lower, 243 nM

Point of comparison: Cc1cc(O)c(-c2ccc([C@@H](C)CN(C)C)cc2)c2c1[nH]c(=O)c1sccc12, TGI 7.11 µM. Against it:
- CCn1c2ccccc2c2cc(C(=O)c3ccc(C)c4ccccc34)ccc21 — higher, > 100 µM
- CC[PH+](CC)CC.[Cl][Au] — 4.1-fold higher, 28.8 µM
- O=C1Nc2cc(F)ccc2C1=O — higher, > 100 µM
- COc1cc(CNc2oc(-c3ccccc3)c(-c3ccccc3)c2C#N)cc(CN2CCN(C)CC2)c1O — 2.3-fold lower, 3.15 µM
- CNC(=O)c1cncc(/C=C/c2ccccc2Cl)c1 — higher, > 25 µM
- CCOC(=O)c1c(SCc2cc(=O)[nH]c(=O)[nH]2)n(-c2ccccc2)c(=S)n(-c2ccccc2)c1=O — higher, > 100 µM
- N#CC1=C(N)NC(=O)NC12Nc1ccccc1N2 — higher, > 100 µM
- O=C1N=C(Nc2nc(-c3csc(NC4=NC(=O)/C(=C\c5ccccc5)S4)n3)cs2)S/C1=C/c1ccccc1 — 3.5-fold higher, 24.6 µM
- C=C1C[C@@H]2C[C@@H](C)CC(O)[C@]2(CCCN)C1O (stereo not given in full) — higher, > 100 µM
- COC(=O)CC[C@]12C[C@]13CC[C@]1(C)C4C(C)C[C@]5(CC(C)C(=O)O5)OC4CC1(C)C3CCC2C(C)(C)O (stereo not given in full) — higher, > 100 µM
- CN1c2ccccc2C2=C(c3ccccc3)CC[C@@H](C(=O)N3C4CC5CC[C@@]4(CS3(=O)=O)C5(C)C)[C@@H]21 (stereo not given in full) — higher, > 100 µM
- CC1=C(C)SC(=C2Sc3c(n(C)c(=O)n(C)c3=O)S2)S1 — higher, > 100 µM
- CC(=O)Oc1ccc2c(-c3ccccc3)c(Oc3ccc(Cl)cc3)c(=O)oc2c1 — 4.1-fold higher, 29.2 µM
- CC1=NOC(=O)/C1=C/c1ccc2c(c1)OCO2 — higher, > 100 µM
- CC1c2[nH]c3ccccc3c2CCN1O (stereo not given) — higher, > 100 µM
- CC(=O)/C(=N\Nc1ccc(Cl)cc1)C(C)=Nc1ccc(C)cc1 — higher, > 100 µM
- CC(C)(C)OC(=O)N[C@@H](Cc1ccccc1)C(=O)N(Cc1ccccc1)C1(C(=O)NCc2ccccc2)CCN(Cc2ccccc2)CC1 — higher, > 100 µM
- COC1(CC[C@H](C)COC2OC(CO)C(O)C(O)C2O)O[C@H]2C[C@H]3[C@@H]4CC=C5C[C@@H](OC6OC(CO)C(OC7OC(C)C(O)C(O)C7O)C(O)C6OC6OC(C)C(O)C(O)C6O)CC[C@]5(C)[C@H]4CC[C@]3(C)[C@H]2[C@@H]1C (stereo not given in full) — 1.8-fold higher, 13.1 µM
- C[C@H]1[C@H](C)CC[C@]2(C(=O)OC3OC(CO)C(O)C(O)C3O)CC[C@]3(C)C(=CC[C@@H]4[C@@]5(C)C[C@@H](O)[C@@H]6OC(=O)c7cc(O)c(O)c(O)c7-c7c(cc(O)c(O)c7O)C(=O)OC[C@@]6(CO)[C@@H]5CC[C@]43C)[C@H]12 (stereo not given in full) — higher, > 100 µM
- C=C1C(OC(C)=O)CC(OC(C)=O)C2(C)C(OC(C)=O)C(OC(C)=O)C3=C(C)C(OC(=O)/C=C/c4ccccc4)CC(C(OC(C)=O)C12)C3(C)C (stereo not given) — higher, > 100 µM
- c1cncc(CSc2nc3ccccc3nc2-c2cccs2)c1 — higher, > 100 µM
- O=c1c2cc([N+](=O)[O-])ccc2oc2nc3n(c(=O)c12)CCCS3 — higher, > 100 µM
- CSc1nc(=O)c2nc(-c3cccs3)c(-c3cccs3)nc2n1C — higher, > 100 µM
- Cc1c(C(=O)NNc2ccccc2)n2c(=S)[nH]nc2c2ccccc12 — higher, > 100 µM
- O=C(NC(C(F)(F)F)(C(F)(F)F)P(=O)(Cc1ccccc1)Cc1ccccc1)C(C(F)(F)F)C(F)(F)F — 10-fold higher, 71.2 µM
- OC(CC(O)(C(F)(F)Cl)C(F)(F)Cl)c1ccccc1 (stereo not given) — higher, > 10 µM
- COc1ccc(OC(C)C(=O)O)c2c(=O)ccccc12 (stereo not given) — higher, > 100 µM
- CN(C)CCNCCCNc1c2ccccc2nc2cccc([N+](=O)[O-])c12 — 56-fold lower, 0.128 µM
- CCOC(=O)c1csc(NC(=O)CCN2CCN(C)CC2)n1 — higher, > 100 µM
- N#Cc1cccc(N2C(=O)C3C4C=CC(C3C2=O)C2C(=O)N(c3cccc(C#N)c3)C(=O)C42)c1 (stereo not given) — higher, > 63.1 µM
- COc1c(N2CCN(CN3C(=O)C(=Nc4ccc(S(=O)(=O)Nc5ncccn5)cc4)c4cc(Cl)ccc43)C(C)C2)c(F)cc2c(=O)c(C(=O)O)cn(C3CC3)c12 (stereo not given) — higher, > 50 µM
- CN(C)CCCNc1nc2ccccc2c2[nH]c3ccccc3c12 — 2.9-fold lower, 2.49 µM
- COc1ccc2[nH]c(C(=O)OCc3ccc4c(Cl)cc(Cl)c(O)c4n3)cc2c1 — 1.8-fold lower, 3.88 µM
- CC(=O)NN1C(=O)C(Cc2ccccc2)c2ccccc21 (stereo not given) — higher, > 100 µM
- CC(C)(C)N=NC(C)(C)N=C=O — higher, > 100 µM
- CC(=N/NC(=S)N(C)C)/C(=N\NC(=S)N(C)C)c1ccccc1 — within 1.5-fold, 5.26 µM
- CCN(CC)CCCCNc1c2ccc(Cl)cc2nc2ccc(OC)cc12 — 2.2-fold lower, 3.24 µM
- O=c1/c(=N\Nc2ccccc2)c2cccc3ccc4cccc1c4c32 — higher, > 100 µM
- CC(C)=CCC[C@@H](C)C1=C(Nc2ccccc2F)C(O)=C(C)C(=O)C1=O — higher, > 100 µM
- Cn1c(=O)cc(NNc2ccc(Cl)c(Cl)c2)[nH]c1=O — 9.7-fold higher, 69 µM
- CCn1ncc2c(=O)n3ncn(-c4ccc(Br)cc4)c3nc21 — higher, > 100 µM
- CCOC(=O)C(NC(=O)c1cccc(Cl)c1)(Nc1cccc(C)c1)C(F)(F)F (stereo not given) — 7.2-fold higher, 51.1 µM
- CC[C@]12C=CCN3CCC4(c5cc([C@@]6(C(=O)OC)CC7CN(CCc8c6[nH]c6ccccc86)CC6CCCCC67)c(OC)cc5N(C)C4[C@](O)(C(=O)OC)C1OC(C)=O)[C@@H]32 (stereo not given in full) — within 1.5-fold, 4.97 µM
- COc1cc(NCCCCCN=C(N)NC(N)=NC(C)C)c2ncccc2c1 — 2.2-fold higher, 15.6 µM
- Cc1cc(-c2ccccc2)nc2oc(=O)n(C)c12 — higher, > 100 µM
- CS(=O)(=O)Nc1ccc2ccccc2c1 — higher, > 100 µM
- COc1cc2c(c(OC)c1)[C@H](C)N(Cc1ccccc1)C(C)C2 (stereo not given in full) — higher, > 100 µM
- CNC(=S)N1CCN(C(C)=O)C1=S — higher, > 100 µM
- COCCNc1cncc(C(N)=O)c1 — higher, > 100 µM
- Oc1ccccc1/C=N/N1C(=S)N(C23CC4CC(CC(C4)C2)C3)C(=Nc2ccccc2)C1=Nc1ccccc1 — higher, > 100 µM
- CN1CCN(CCCOc2cc(O)c3c(=O)cc(-c4ccccc4)oc3c2)CC1 — 14-fold higher, 96.4 µM
- CC/C(=C/c1ccc(OC)cc1OC)[N+](=O)[O-] — 3.9-fold higher, 27.5 µM
- O=c1c2ccc(Cl)cc2oc2c(CNc3ccc(S(=O)(=O)Nc4ncccn4)cc3)cccc12 — higher, > 100 µM
- CN(C)CCCNC(=O)N/N=C/c1ccccc1 — higher, > 100 µM
- CO/N=C(\COc1ccc2oc(-c3ccccc3)cc(=O)c2c1)c1ccc(F)cc1 — 8.2-fold higher, 58.4 µM
- NCCCCNCCCN1CCOC1=O — higher, > 100 µM
- COc1ccc2nc3cc(Cl)ccc3c(Nc3cc(CN4CCCC4)c(O)c(CN4CCCC4)c3)c2n1 — within 1.5-fold, 6.09 µM
- CC[C@H](C)[C@H](NC(=O)c1cccn1C)C(=O)N(C)[C@H](C[C@@H](OC(C)=O)c1nc(C(=O)N[C@@H](Cc2ccccc2)C[C@H](C)C(=O)OC)cs1)C(C)C — higher, > 33.3 µM
- Cc1cn(S(=O)(=O)c2ccccc2)c2c(OCc3ccccc3)cc(NC(=O)c3cc4cc([N+](=O)[O-])ccc4s3)cc12 — higher, > 100 µM

With COc1ccc(CC2C(=O)OC(C)C(NC(=O)c3c4nc5c(C(=O)NC6C(=O)NC(C(C)C)C(=O)N7CCCC7C(=O)N(C)CC(=O)N(C)C(Cc7ccc(OC)cc7)C(=O)OC6C)ccc(C)c5oc-4c(C)c(=O)c3N)C(=O)NC(C(C)C)C(=O)N3CCCC3C(=O)N(C)CC(=O)N2C)cc1 (stereo not given) (I: TVP[Sar][NMeY](Me) / II: TVP[Sar][NMeY](Me); ester I:1-I:C, II:1-II:C; linker I:N-II:N via Actinocin(1to9); configuration not given here) the GI50 was < 10 nM and 28.8 nM.
